Here are results for 86 sequences from the supplement of paper PMC3334620.

Over roughly 33,000 sequences, “E-score (-0.5 to 0.5)” has its median near -0.013; the highest 2% begin near 0.3. The list shows a part of the results.

This assay deals with T1, Msn1 (UniProt P22148).
T1 sequence: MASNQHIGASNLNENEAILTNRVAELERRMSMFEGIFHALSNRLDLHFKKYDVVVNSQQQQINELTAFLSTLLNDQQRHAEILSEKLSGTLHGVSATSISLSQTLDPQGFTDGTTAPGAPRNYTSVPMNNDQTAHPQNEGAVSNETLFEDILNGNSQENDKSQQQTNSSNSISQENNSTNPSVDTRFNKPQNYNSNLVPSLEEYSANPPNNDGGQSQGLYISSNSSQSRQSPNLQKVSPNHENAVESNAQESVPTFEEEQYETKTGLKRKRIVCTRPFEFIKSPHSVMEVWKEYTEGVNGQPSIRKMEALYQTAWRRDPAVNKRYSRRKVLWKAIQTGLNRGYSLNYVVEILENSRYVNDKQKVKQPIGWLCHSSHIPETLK
In words: PBM E-score (8-mer binding enrichment) (E-score (-0.5 to 0.5)); higher = stronger / more preferred TF binding; most listed sequences are background and not binding sites. To be noted: protein concentration: 200 nM; construct: GST-full length. The method, boiled down: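 Each ungapped eight-base word and its reverse complement, pooled, received an E-score from the Universal PBM Analysis Suite. Underlying scans, normalised with masliner, recorded fluorescent anti-GST bound to GST-tagged yeast transcription factors. These were applied at about 100-200 nM to universal all-10-mer Agilent arrays double-stranded by primer extension.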
Regarding GTACTTCA, the “PBM E-score” value worked out at 0.165.

For ACCGTAGA, the “PBM E-score” value was -0.0668.

On to AAGGGCGG, for which the “PBM E-score” value was -0.21.

CGTACACG: the “PBM E-score” value was determined as 0.152.

As for AGCACTCA, the “PBM E-score” value was -0.193.

For GACATTTA, the “PBM E-score” value came to 0.474.

On to CATCATCA, for which the “PBM E-score” value was -0.01.

As to CATCTCAG, the “PBM E-score” value was found to be 0.00542.

Regarding CATGCAAA, the “PBM E-score” value came out at 0.0263.

Turning to ACGACACC, the “PBM E-score” value is 0.0705.

Turning to CAGCTGCG, the “PBM E-score” value is -0.143.

In the case of CCAACCTA, the “PBM E-score” value was -0.201.

Regarding CATAACAC, the “PBM E-score” value was -0.0452.

For the sequence CACCATAG, the “PBM E-score” value was -0.153.

Take GGCCAAAA: the “PBM E-score” value worked out at 0.00072.

On to AGATGCGG, for which the “PBM E-score” value is -0.0218.

Consider ATGTATAG, for which the “PBM E-score” value turned out to be 0.0462.

For ATTGCCTA, the “PBM E-score” value was -0.131.

As to CGCGTCCC, the “PBM E-score” value was 0.0219.

On to CTGCGTCA, for which the “PBM E-score” value is -0.00884.

With CACCGGCA, the “PBM E-score” value came out at 0.0669.

As for AGTTCGTC, the “PBM E-score” value came to 0.0758.

In the case of AGTAATTG, the “PBM E-score” value amounted to 0.0742.

As for GTTAAGGA, the “PBM E-score” value was 0.0664.

For ACTGGGCT, the “PBM E-score” value is -0.198.

Regarding CTTGCCTA, the “PBM E-score” value is -0.0484.

Consider AGACTGAC, for which the “PBM E-score” value was -0.0742.

For the sequence ACGAGATC, the “PBM E-score” value was 0.0399.

With GCACGCGC, the “PBM E-score” value is -0.132.

As for AGGCTTCG, the “PBM E-score” value was -0.0579.

Turning to GATCTTAA, the “PBM E-score” value amounted to 0.0914.

As for ACGCTCCG, the “PBM E-score” value was -0.131.

For GACACGTC, the “PBM E-score” value stood at 0.295.

CTTCAAGA: the “PBM E-score” value worked out at 0.162.

For the sequence GATCTTAC, the “PBM E-score” value was 0.00117.

In the case of GATATTAA, the “PBM E-score” value came out at 0.0435.

With AGCGAGCG, the “PBM E-score” value was found to be 0.00381.

As to GCTGAAGC, the “PBM E-score” value was -0.105.

Take AAGCTCAA: the “PBM E-score” value was determined as 0.141.

For the sequence CTCTCTTC, the “PBM E-score” value was -0.18.

For AACTTTAG, the “PBM E-score” value came to 0.0922.

Take AGGCGGAC: the “PBM E-score” value was -0.027.

Take CGACATGC: the “PBM E-score” value came to 0.218.

As for AGTTACGA, the “PBM E-score” value turned out to be 0.0116.

As for AATACACG, the “PBM E-score” value is -0.187.

On to AGCCCTCC, for which the “PBM E-score” value was -0.266.

On to CGAGGCGA, for which the “PBM E-score” value came out at 0.0443.

Regarding CTTTCGGA, the “PBM E-score” value is 0.155.

With GAGCATTA, the “PBM E-score” value is -0.0317.

As for AGGAACGC, the “PBM E-score” value is -0.109.

With ACTACGGG, the “PBM E-score” value is -0.199.

For GCCTGAGC, the “PBM E-score” value was -0.0799.

In the case of ACGTGCAC, the “PBM E-score” value was -0.0179.

Take ATGGGGGG: the “PBM E-score” value is -0.334.

In the case of GTGGCAAA, the “PBM E-score” value was -0.106.

Consider ATCTCCTA, for which the “PBM E-score” value was -0.178.

For the sequence CTGAGCCC, the “PBM E-score” value is -0.23.

On to CTCTCTAA, for which the “PBM E-score” value was -0.211.

For the sequence ACTACACC, the “PBM E-score” value is -0.0282.

In the case of CAATAGAA, the “PBM E-score” value was -0.0696.

Consider AGGTCTCC, for which the “PBM E-score” value is -0.214.

As for ACCCGATC, the “PBM E-score” value is -0.157.

Consider AAGTGCAG, for which the “PBM E-score” value is -0.0771.

Consider CACCTAGG, for which the “PBM E-score” value was -0.044.

With CTAGCATC, the “PBM E-score” value is -0.0427.

For ACAACTGT, the “PBM E-score” value was 0.242.

For the sequence AAGAGCTC, the “PBM E-score” value is -0.0373.

For the sequence CGGGACGC, the “PBM E-score” value was -0.139.

With AAGAGGGT, the “PBM E-score” value was -0.12.

For AGTCAATC, the “PBM E-score” value was -0.0255.

Take AATTTGGG: the “PBM E-score” value worked out at 0.206.

For ACTGCGAG, the “PBM E-score” value is -0.107.

On to AGTGCCTA, for which the “PBM E-score” value was -0.0351.

In the case of AACTCGAC, the “PBM E-score” value is 0.0464.

Regarding AGAGCGCA, the “PBM E-score” value is -0.153.

Consider ATCCCAAT, for which the “PBM E-score” value came to 0.109.

For CTTGAACC, the “PBM E-score” value stood at 0.0161.

For AATATATT, the “PBM E-score” value was found to be 0.279.

As for GACAGCCA, the “PBM E-score” value is -0.0329.

For the sequence TCACAGAA, the “PBM E-score” value was 0.0869.

With ACATCACC, the “PBM E-score” value amounted to 0.0134.

With CCATAAAA, the “PBM E-score” value was found to be 0.157.

In the case of ACAATATG, the “PBM E-score” value turned out to be 0.205.

Consider CACTTACG, for which the “PBM E-score” value is -0.00802.

With AACGCCTG, the “PBM E-score” value amounted to 0.043.

As to CGCTGAAC, the “PBM E-score” value was -0.082.
